Laboratory results published in PubChem BioAssay AID493208 (National Center for Advancing Translational Sciences (NCATS), 2011).
The campaign covered roughly 44,000 compounds. About 340 (0.77%) were called active. Inconclusive results, whose numbers are uncertain, are shown with a selection of clear calls. Calls come from the whole dose curve; as a rule, active = well fitted inhibition curve with a large enough effect; inconclusive = small, poorly fitted or top-dose-only effect; inactive = flat fitted curve, though single readings scatter. No potency is given beside an inconclusive call; the fits are too rough.

Assay: Acumen qHTS Assay for Inhibitors of the mTORC1 Signaling Pathway in MEF (Tsc2-/-, p53-/-) Cells: Sytravon; note: nearly all actives have a fitted effect of over 50% in size;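 for activity change, negative = inhibition: plate controls were DMSO for no effect and rapamycin for full effect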
Settings: phospho-rpS6 immunofluorescence/PI, 24 h; series mostly up to 38.3 µM; activity change, negative = inhibition: at the top concentration
Procedure, shortened: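 Cell-based qHTS: Tsc2-/- p53-/- MEF, 24 h cpd, 37 °C; fix/perm, anti-phospho-S6 Alexa-488 + PI; Acumen 488 nm scan; pS6/PI ratio, % positive cells; rapamycin 7.5 nM = inhibition ref; PI count = viability.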
Potency is the fitted concentration of half-maximal effect; tags give direction and shape of the fitted curve.

Row | Compound | Potency | activity change, negative = inhibition
1 | Cc1cc(C)c(NS(=O)(=O)c2ccc(-c3cnc(C4CC4)o3)cc2)c(C)c1 | inconclusive [falling, partial curve, poor fit] | 
2 | Clc1cccc(CNc2cc(-c3ccccc3)nc3nncn23)c1 | inconclusive [falling, single point] | 
3 | Cc1cc(C)cc(Oc2coc3cc(OCC(=O)NC4CCCCC4)ccc3c2=O)c1 | inconclusive [falling, partial curve, poor fit] | 
4 | CCOC(=O)N1CCN(Cc2nc3cc(NC(=O)c4ccc(OC)cc4)ccc3n2C(C)C)CC1 | inconclusive [falling, partial curve] | 
5 | CCCN(CCC)CC(O)Cn1cc(/C=C/C(=O)c2ccc(Br)cc2)c2ccccc21 (stereo unspecified) |  | inactive: -10.3%
6 | CCc1ccc(NC(=O)Cn2c(=O)n(-c3ccc(OC)cc3)c(=O)c3ccc(C(=O)NCc4ccc(C)cc4)cc32)cc1 | inconclusive [falling, partial curve, poor fit] | 
7 | O=C(Nc1ccc(Br)cc1)c1ccc(F)c(S(=O)(=O)N2CCc3ccccc32)c1 | inconclusive [falling, single point] | 
8 | Cc1ccc(S(=O)(=O)C(CNC(=O)C(=O)NCc2ccccc2C)c2cccs2)cc1 (stereo unspecified) |  | inactive: -1.34%
9 | C#CCOc1ccc(C2CC(=O)Nc3c2c(C)nn3-c2nc(C)cc(C)n2)cc1 (stereo unspecified) | inconclusive [falling, single point] | 
10 | O=c1ccc(-c2ccccc2)nn1Cc1ccc(F)cc1Cl | inconclusive [falling, single point] | 
11 | CCc1ccc(CNCc2c(C(=O)O)n(Cc3ccc(C)cc3)c3cc(C)ccc23)cc1 | inconclusive [falling, single point] | 
12 | Cc1ccc2nc(-c3ccc(NC(=O)c4ccc(S(C)(=O)=O)cc4)cc3)sc2c1 |  | inactive: 1.45%
13 | COc1ccc(NC(=O)c2c(NC(=O)COc3ccccc3)sc3c2CCC(C)C3)cc1 (stereo unspecified) | inconclusive [falling, single point] | 
14 | Cc1ccc(NC(=O)CSc2nnc3[nH]c(=O)cc(-c4ccccc4)n23)cc1Cl |  | inactive: -10.6%
15 | COc1ccccc1N1CCN(c2ncc3c(n2)CCN(Cc2ccccc2F)C3)CC1 |  | inactive: 6.93%
16 | C=CCc1c(C)nc2nc(SCC(=O)Nc3ccc(C)c(C)c3)nn2c1C | active: 10.4 µM | 
17 | CCOc1cccc(C2CC(=O)Nc3cc4c(cc32)OCCO4)c1 (stereo unspecified) | active: 20.7 µM | 
18 | CCC(C)NC(=O)c1ccc2c(c1)nc1n2CCCCC1 (stereo unspecified) |  | inactive: -12%
19 | Cc1ccc(NC(=O)c2cc(S(=O)(=O)N3CCCCCC3)ccc2F)cc1F | inconclusive [falling, single point] | 
20 | CCc1ccccc1N1CC(c2nc3ccccc3n2CCOc2ccc(Cl)c(C)c2)CC1=O (stereo unspecified) |  | inactive: -15.5%
21 | COc1ccc(S(=O)(=O)N(CC(=O)Nc2cc(C)cc(C)c2)c2ccc(Cl)cc2)cc1 | inconclusive [falling, partial curve, poor fit] | 
22 | COc1ccccc1CNC(=O)CCCCn1c(=O)c2ccccc2n(Cc2ccccc2C)c1=O |  | inactive: -8.41%

Row | Compound | Potency | activity change, negative = inhibition
23 | Fc1ccc(-c2nc3c4c(-c5ccccc5)c(-c5ccccc5)oc4ncn3n2)cc1 | inconclusive [falling, full curve, poor fit] | 
24 | CCC(Oc1ccccc1)C(=O)N1CCN(Cc2cc(=O)n3nc(-c4cccc(C)c4)sc3n2)CC1 (stereo unspecified) | inconclusive [falling, partial curve, poor fit] | 
25 | O=C(Nc1ccc(Cl)c(Cl)c1)N(Cc1c[nH]c2ccccc12)C1CCCCC1 |  | inactive: -13.8%
26 | COC(=O)c1ccc([C@H]2Nc3ccc(S(=O)(=O)Nc4ccc(F)cc4)cc3[C@H]3C=CC[C@H]32)cc1 | inconclusive [falling, single point] | 
27 | CN(C)c1ncc(C(=O)NCc2ccccc2Cl)cn1 | inconclusive [activator, single point] | 
28 | Cc1ccc(S(=O)(=O)N2CCCC2C(=O)Nc2ccc(Br)cc2)cc1 (stereo unspecified) |  | inactive: -0.221%
29 | CCc1cccc(NC(=O)C(Cc2ccccc2)NS(=O)(=O)c2cccs2)c1 (stereo unspecified) | inconclusive [activator, partial curve, poor fit] | 
30 | Cc1ccc2nc3c(cc(C(=O)NC4CCCC4)c(=N)n3C(C)C)c(=O)n2c1 |  | inactive: 7.59%
31 | CCc1nc2nc(C)cc(Nc3cc(C)ccc3C)n2n1 | inconclusive [falling, partial curve, poor fit] | 
32 | COc1ccc2sc(N(Cc3cccnc3)C(=O)CCc3ccccc3)nc2c1 |  | inactive: -2.35%
33 | CCN(C(=O)Cn1nc(Cc2ccncc2)c2ccccc2c1=O)c1ccc(OC)cc1 | inconclusive [falling, partial curve, poor fit] | 
34 | CC1=C(C(=O)Nc2ccc(Cl)cc2)C(c2ccccc2)n2ncc(C(=O)Nc3ccccc3)c2N1 (stereo unspecified) | inconclusive [falling, single point] | 
35 | Cc1ccc(C)c(-c2ccc(=O)n(Cc3c(F)cccc3Cl)n2)c1 | inconclusive [falling, partial curve, poor fit] | 
36 | CCc1ccc(Cn2c(CNS(=O)(=O)c3ccc(C)c(C)c3)nc3cccnc32)cc1 |  | inactive: -0.486%
37 | Cc1ccc(S(=O)(=O)CC(=O)N2CCN(c3nc4c(F)cccc4s3)CC2)cc1 |  | inactive: -0.254%
38 | CCn1c2c(c(=O)n3ncc(C(=O)N4CCN(c5ccc(Cl)cc5)CC4)c13)CN(Cc1ccc(OC)cc1)CC2 | inconclusive [falling, single point] | 
39 | CC(C)OCc1cc(CN2CCN(c3cccc(C(F)(F)F)c3)CC2)c(O)c2ncccc12 | inconclusive [falling, partial curve, poor fit] | 
40 | Cc1c(C(=O)OCc2ccccc2)[nH]c2c1C(=O)CC(c1ccc(Cl)cc1)C2 (stereo unspecified) | inconclusive [falling, partial curve, poor fit] | 
41 | CCOc1ccc(S(=O)(=O)Nc2cccc(-c3ccc(N4CCC(C)CC4)nn3)c2)cc1 |  | inactive: -3.46%
42 | CCCCCn1cc2c(c1-c1ccccc1Br)c(=O)n(C)c(=O)n2C |  | inactive: -0.483%
43 | CCC(C)NC(=O)Cn1c(=O)n(Cc2ccc(C(=O)NCc3ccc(C)cc3)cc2)c(=O)c2ccccc21 (stereo unspecified) | inconclusive [falling, single point] | 
44 | COc1ccccc1CNC(=O)CSc1nnc(C)c2c(C)n(-c3ccccc3)nc12 |  | inactive: -0.022%

Row | Compound | Potency | activity change, negative = inhibition
45 | COc1cccc(Cn2c(CNS(=O)(=O)c3ccc(Cl)s3)nc3cccnc32)c1 | inconclusive [falling, partial curve, poor fit] | 
46 | Cc1ccc(NC(=O)c2c(C)oc3c2C2=NCCN2C=N3)cc1F | inconclusive [falling, full curve] | 
47 | Fc1ccc(C(NCCc2ccccc2)c2nnc(-c3ccccc3Cl)o2)cc1 (stereo unspecified) | inconclusive [falling, partial curve, poor fit] | 
48 | CCN(CC)CCCNC(=O)c1ccc(Cn2c(=O)[nH]c3cc(OC)c(OC)cc3c2=O)cc1 |  | inactive: -0.966%
49 | COc1cccc(-c2noc(CCCC(=O)NCc3ccco3)n2)c1 | inconclusive [falling, single point] | 
50 | O=C(CSc1ccccc1)NCc1ccc2c(c1)CCN2C(=O)c1ccccc1 | inconclusive [falling, partial curve, poor fit] | 
51 | COc1ccc(CNC(=O)C2=CC(c3cccc(OC)c3)=NS(=O)(=O)N2C)cc1 | inconclusive [falling, partial curve] | 
52 | COC(=O)c1c(-c2ccc(Cl)cc2)noc1N1CCN(c2ccc(F)cc2)CC1 |  | inactive: 0.313%
53 | CC(C)c1cc(C(=O)NCc2ccccc2)no1 | inconclusive [falling, partial curve, poor fit] | 
54 | Cc1cccc(C)c1Nc1c(-c2ccsc2)nc2cccc(C)n12 | inconclusive [falling, single point] | 
55 | CCc1ccc(Sc2cc(C(=O)NCCCN3CCC(C)CC3)c3ccccc3n2)cc1 | inconclusive [falling, single point] | 
56 | CCOc1ccc(/C=C/c2nc(C#N)c(N3CCC(C)CC3)o2)cc1 | inconclusive [falling, single point] | 
57 | CCOC(=O)N1CCc2c(sc3c2C(=O)NC(c2ccc(C(=O)OC)cc2)N3)C1 (stereo unspecified) | inconclusive [falling, single point] | 
58 | COCCNC(=O)CSc1nc(-c2ccccc2)[nH]c1-c1ccc(C)cc1 |  | inactive: -5.91%
59 | Cc1cccc(C(=O)Nc2ccc(C(=O)OCc3cc(=O)n4c(C)csc4n3)cc2)c1 |  | inactive: 4.52%
60 | Cn1nc(-c2ccccc2F)c2cc(C(=O)Nc3cc(F)ccc3F)sc21 | inconclusive [falling, single point] | 
61 | Cc1cccc2c(=O)cc(CSCC(=O)Nc3ccc(Cl)cc3)[nH]c12 | inconclusive [falling, single point] | 
62 | COc1ccc(Nc2nc(Nc3ccc(OC)cc3OC)nc(N3CCOCC3)n2)c(OC)c1 | active: 1.47 µM | 
63 | COC(=O)c1ccn(-c2nc(-c3ccc(Cl)cc3)cc(C(F)(F)F)n2)n1 |  | inactive: -11.9%
64 | COc1cccc(C2C(C(=O)Nc3cccnc3)=C(C)Nc3nc(SCc4ccccc4)nn32)c1 (stereo unspecified) | inconclusive [falling, single point] | 
65 | CCc1ccc2nc(N3CCN(C(=O)c4ccco4)CC3)sc2c1 |  | inactive: -4.18%
66 | CCN(CC)CCCNC(=O)Cn1c(-c2cccs2)cc2cc(Cl)ccc21 | inconclusive [falling, single point] | 
